# Results as given in publication PMC4336329 (PLoS ONE, 2015).
# The campaign covered roughly 310,000 compounds. About 14,000 (4.5%) showed an effect of 50% or more. Effects have a minus sign here. Some of the results follow.
# Molecular target: human ether-à-go-go-related gene (hERG) potassium channel (human, UniProt Q12809)
# Experiment: primary screen, population patch clamp on CHO cells stably expressing hERG
# 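Note: peak tail current of the secondary pulse compared with the same well before compound.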
# Chain of human ether-à-go-go-related gene (hERG) potassium channel (Q12809 whole entry, looked up): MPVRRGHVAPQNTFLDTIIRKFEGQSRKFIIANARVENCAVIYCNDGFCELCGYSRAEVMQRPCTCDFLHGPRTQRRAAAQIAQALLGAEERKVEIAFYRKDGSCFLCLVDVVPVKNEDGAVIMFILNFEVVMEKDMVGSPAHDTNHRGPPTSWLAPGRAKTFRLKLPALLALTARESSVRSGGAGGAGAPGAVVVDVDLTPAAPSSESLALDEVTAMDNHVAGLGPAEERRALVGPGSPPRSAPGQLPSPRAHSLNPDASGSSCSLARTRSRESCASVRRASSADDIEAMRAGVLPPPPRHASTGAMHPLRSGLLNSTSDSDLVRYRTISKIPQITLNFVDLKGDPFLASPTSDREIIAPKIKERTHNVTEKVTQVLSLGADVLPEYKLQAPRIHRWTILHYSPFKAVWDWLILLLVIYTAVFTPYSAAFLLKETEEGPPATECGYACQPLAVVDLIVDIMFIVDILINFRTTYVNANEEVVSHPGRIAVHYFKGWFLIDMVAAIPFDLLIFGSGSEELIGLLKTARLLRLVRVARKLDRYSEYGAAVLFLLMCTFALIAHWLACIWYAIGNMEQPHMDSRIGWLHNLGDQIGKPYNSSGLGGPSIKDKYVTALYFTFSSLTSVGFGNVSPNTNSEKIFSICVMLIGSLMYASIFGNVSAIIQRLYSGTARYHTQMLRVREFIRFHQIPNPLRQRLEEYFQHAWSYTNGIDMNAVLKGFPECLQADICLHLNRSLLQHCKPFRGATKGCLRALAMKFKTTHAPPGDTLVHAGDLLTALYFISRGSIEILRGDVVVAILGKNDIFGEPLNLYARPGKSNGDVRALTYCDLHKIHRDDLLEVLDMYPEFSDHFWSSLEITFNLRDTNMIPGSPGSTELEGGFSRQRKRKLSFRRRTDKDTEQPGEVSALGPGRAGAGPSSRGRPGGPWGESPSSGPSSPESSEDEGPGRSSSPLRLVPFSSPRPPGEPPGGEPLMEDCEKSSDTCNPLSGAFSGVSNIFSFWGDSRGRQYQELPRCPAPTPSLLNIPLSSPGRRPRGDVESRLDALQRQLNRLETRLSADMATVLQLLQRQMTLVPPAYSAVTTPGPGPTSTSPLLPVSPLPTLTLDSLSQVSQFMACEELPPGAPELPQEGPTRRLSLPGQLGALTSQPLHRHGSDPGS
row,Compound,"hERG current change (%, negative = inhibition) at 10uM [%]"
1,Cc1ccc2c(c1)N(CCC(=O)NCCCOC(C)C)C(=O)C(C)O2 (stereo not drawn),-0.496
2,Cc1cc(C(=O)N2C(C)CCCC2C)no1 (stereo not drawn),6.13
3,O=C(NCc1ccccn1)c1ccccc1-c1ccccc1,3.96
4,Cc1nn(C(C)c2n[nH]c(=S)n2-c2cccc(Cl)c2)c(C)c1[N+](=O)[O-] (stereo not drawn),13.4
5,CCOc1c(Cl)cc(CNc2ccc(S(N)(=O)=O)cc2)cc1OC,-3.11
6,Cc1sc2ncnc(N3CCC(C(=O)NNC(=O)c4ccc(F)cc4)CC3)c2c1C,-21.9
7,O=C1NNC(c2ccccc2)=N/C1=C\c1ccccc1,-6.08
8,Cc1c[nH]c2cccc(OCC(O)CNC(C)(C)C)c12.Cl (stereo not drawn),-8.91
9,O=C(Nc1ccncc1)c1ccc(F)cc1,0.865
10,O=C(COc1ccc(Cl)cc1)Nc1ccc(CN2CCOCC2)cc1,-39.6
11,CN(C)C=O.O=C(OCC(=O)N1CCCc2ccccc21)C1CCN(S(=O)(=O)c2cccs2)CC1,-71.1
12,NC(=NC(=O)c1ccccc1)N1CCOCC1,-8.78
13,C/C(=N/NC(=O)c1cc2ccccc2cc1O)C1C(=O)c2ccccc2C1=O,25.2
14,O=C(NCc1cccnc1)c1cccc(S(=O)(=O)N2CCCC2)c1,-6.24
15,Cc1c(C#N)c(O)n(CCO)c(=O)c1N=Nc1ccccc1,-1.05
16,CCc1nc2sc3ccccc3c(=O)c2c(=O)n1Cc1ccco1,-8.27
17,Cc1ccc(CCNC(=O)C23CN(Cc4ccccc4)CC2C(c2ccc([N+](=O)[O-])cc2)=NO3)cc1 (stereo not drawn),-24
18,CCOC(=O)c1cn(CC(=O)Nc2cccc(F)c2)nn1,-10.3
19,COC(=O)Cc1ccc(NC(=S)NC2CC2)cc1,6.3
20,COc1cccc(NC(=O)Nc2ccc3c(c2)CCC3)c1,18.6
21,Cc1ccc(S(=O)(=O)NCCC(=O)Nc2ccc(Cl)c(Cl)c2)cc1,15.9
22,O=C(O)[C@H]1CCCC[C@H]1C(=O)NCCc1ccccc1,-6.25
23,CN(C)S(=O)(=O)c1ccc2oc(SCC(=O)NCC(F)(F)F)nc2c1,-4.61

row,Compound,"hERG current change (%, negative = inhibition) at 10uM [%]"
1,O=C1CSC(c2ccccc2Cl)N1 (stereo not drawn),17
2,CCN(CC)C(=O)Cn1cnc2sc(C(=O)NCCCN3CCOCC3)c(C)c2c1=O,20.1
3,COc1ccc(NC(=O)CN2C(=O)c3cccc4cccc2c34)c(OC)c1,3.07
4,CCOC(CNC(=O)c1cccn2c(=O)c3cc(Cl)ccc3nc12)OCC,-7.16
5,C=CCc1ccc(OCC(O)CN2CCCCC2C)c(OC)c1.Cl (stereo not drawn),-55.1
6,COCCNC(=O)c1csc2c1CCCC2,-0.457
7,CC(C)(C)c1ccc(C(=O)NCCCN2CCN(CCCNC(=O)c3ccc(C(C)(C)C)cc3)CC2)cc1,-63.6
8,COCCCn1cnnc1SCC(=O)Nc1ccc(S(=O)(=O)N2CCCC2)cc1,12.9
9,O=C(NCCCN1CCOCC1)c1cc(C(=O)C2CC2)c[nH]1,21.5
10,O=C(NCc1ccccc1)C(c1cccnc1)N(Cc1ccco1)C(=O)c1ccccn1 (stereo not drawn),-9.79
11,O=C(NCc1cccnc1)Nc1ccccc1,5.04
12,Cc1ccc(S(=O)(=O)Nc2ccc(Cl)cc2C(=O)c2ccc(F)cc2)cc1,1.36
13,COc1ccc(CNS(=O)(=O)CCNC(=O)c2ccc(OC)cc2)cc1,-29.3
14,O=C(NCCCCNC(=O)c1ccccn1)c1ccccn1,21.2
15,CCC(C)Sc1cc(C(F)(F)F)c(C(=O)Nc2ccc(Cl)cc2)cn1 (stereo not drawn),8.43
16,Cc1ccccc1CNC(=O)CCC(=O)N1CCOc2ccc(Cl)cc21,-24.2
17,CC(C)CNCC1OCc2ccccc2CO1.Cl,13.6
18,CCCNC(=O)c1cnc(-c2ccccc2)nc1-c1ccccc1,15.2
19,N#Cc1c[nH]n2c(=O)c3c(nc12)CCC3,13.9
20,COc1cccc(CNCCO)c1OCc1ccccc1.Cl,-1.31
21,O=C(COC(=O)CCc1nc2ccccc2s1)NCc1ccco1,2.82
22,Cc1cccc(C)c1NC(=O)CNC(=O)C(NC(=O)c1ccc(C(C)(C)C)cc1)C(C)C (stereo not drawn),14.4
